Measurements from PubChem BioAssay AID493208 (National Center for Advancing Translational Sciences (NCATS), 2011).
About 340 (0.77%) of roughly 44,000 compounds were called active. Inconclusive results (about 5%) are left out. Calls come from the whole dose curve; as a rule, active = well fitted inhibition curve with a large enough effect; inconclusive = small, poorly fitted or top-dose-only effect; inactive = flat fitted curve, though single readings scatter. This is one part of the list.

Assay: Acumen qHTS Assay for Inhibitors of the mTORC1 Signaling Pathway in MEF (Tsc2-/-, p53-/-) Cells: Sytravon; note: nearly all actives have a fitted effect of over 50% in size;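 for activity change, negative = inhibition: plate controls were DMSO for no effect and rapamycin for full effect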
Details: phospho-rpS6 immunofluorescence/PI, 24 h; series mostly up to 38.3 µM; activity change, negative = inhibition: at the top concentration
Method in brief: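 Readout is phospho-S6 Alexa 488 signal normalized to PI per well, reported as % active cells with thresholds set from rapamycin (7.5 nM) and DMSO controls. Cells: Tsc2-/-, p53-/- MEFs, 24 hrs compound at 37 C; PI cell number serves as viability.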
Potency is the fitted concentration of half-maximal effect.

SMILES | activity change, negative = inhibition | Potency
CCOc1ccc(-c2cc(NC(=O)Nc3ccc(Cl)cc3)c(C(=O)OC)s2)cc1 | inactive: 0.381% | 
CCCSc1ncc(Cl)c(C(=O)N(Cc2cccc(Cl)c2)C2CCS(=O)(=O)C2)n1 (centres undefined) | inactive: -1.31% | 
COc1ccc(OC)c(NC(=O)c2cnc(N3CCCCC3)c3ccccc23)c1 | inactive: -0.877% | 
CCOC(=O)c1c(NC(=O)CCCOc2ccc(C(C)(C)C)cc2)sc2c1CCCC2 | inactive: 4.98% | 
Cc1cccc(C(c2sc3nc(-c4ccco4)nn3c2O)N2CCN(c3ccccc3F)CC2)c1 (centres undefined) | inactive: 0.108% | 
CCOC(=O)C1CCCN(S(=O)(=O)c2cc(Br)cc3c2N(C(C)=O)CC3)C1 (centres undefined) | inactive: 0.584% | 
COC(=O)c1ccc(NS(=O)(=O)c2ccc3[nH]c4c(c3c2)CCCC4)cc1 | inactive: 0.715% | 
CCC(=O)N1CCc2cc(S(=O)(=O)NCCC(=O)NCc3ccc(C)cc3)ccc21 | inactive: -14.7% | 
Cc1nn(-c2ccccc2)c2sc(C(=O)Nc3ccc(Br)cc3)cc12 | inactive: -7.85% | 
O=C1COc2ccc(-c3cc(-c4ccccc4)c4c(n3)-c3ccccc3OC4)cc2N1 | inactive: -2.93% | 
COc1ccc(-c2cc3c(=O)n(CC(=O)Nc4cc(F)ccc4F)ccn3n2)cc1OC | inactive: 0% | 
O=C(NCCc1ccc(Cl)cc1)c1ccc2c(c1)N(Cc1ccc(F)cc1)C(=O)CS2 | inactive: -10.2% | 
CN(C)c1ccc(-c2nc(-c3cccs3)c(-c3cccs3)[nH]2)cc1 | inactive: -9.2% | 
COc1cccc(CNC(=O)CCCn2ncn3c(cc4occc43)c2=O)c1 | inactive: 1.72% | 
CCCn1c(SCC(O)c2ccccc2)nc2ccccc21 (centres undefined) | inactive: 2.11% | 
Cc1ccc(-c2noc(-c3ccccc3NC(=O)C3CC(=O)N(c4ccc(C)cc4)C3)n2)cc1 (centres undefined) | inactive: 2.76% | 
Cc1ccc(C(=O)NCC(c2ccco2)S(=O)(=O)c2cccs2)cc1C (centres undefined) | inactive: -2.78% | 
O=C(Oc1ccc(F)cc1)c1nc(SCc2ccc(F)cc2)ncc1Cl | inactive: -3.59% | 
COc1ccc(NC(=O)CCS(=O)(=O)c2ccc3c(c2)oc(=O)n3C)cc1OC | inactive: -4.83% | 
COC(=O)c1sc(-c2ccccc2)cc1NC(=O)Nc1ccc(Cl)cc1 | inactive: -5.15% | 
CC1=C(C(=O)NCc2ccccc2C)C2(CCCCCC2)OC1=O | inactive: 0.215% | 
CCCCN(Cc1cc2ccccc2[nH]c1=O)C(=O)c1cccc(Cl)c1 | inactive: 4.14% | 
Cc1ccc(-c2nc(SCC(=O)NCC3CCCO3)c3c(=O)n(C)c(=O)n(C)c3n2)cc1 (centres undefined) | inactive: -2.11% | 
Cc1cc(OCCn2c(CCNC(=O)C3CCCCC3)nc3ccccc32)ccc1Cl | inactive: 0% | 

SMILES | activity change, negative = inhibition | Potency
CCOC(=O)CSC1=Nc2ccccc2C2=NC(CCC(=O)NCc3ccc(OC)cc3)C(=O)N12 (centres undefined) | inactive: 0.0823% | 
Cc1ccccc1N1CCN(S(=O)(=O)c2ccccc2)CC1 | inactive: -9.95% | 
Oc1c(C(c2ccccc2F)N2CCN(c3ccccc3F)CC2)sc2nc(-c3ccco3)nn12 (centres undefined) | inactive: -0.615% | 
COc1ccc(C)cc1NS(=O)(=O)c1ccc2c3c(cccc13)C(=O)N2 | inactive: 2.36% | 
COc1ccccc1Cn1ccn(Cc2ccc(C)cc2)c(=O)c1=O | inactive: -10.1% | 
CCCc1cc(N2CCN(c3cccc(C)c3C)CC2)n2cnnc2n1 | inactive: 4.01% | 
COc1ccc(CNC(=O)CCC2N=C3c4ccccc4N=C(SCc4ccccc4F)N3C2=O)cc1 (centres undefined) | inactive: 2.36% | 
Cc1cc(C)c(NC(=O)CSc2nccn2-c2cccc(Cl)c2)c(C)c1 | inactive: -3.65% | 
COc1cccc(-n2c(-c3ccccc3F)nc3c(cnn3-c3ccc(C)cc3)c2=O)c1 | inactive: 1.17% | 
CCOC(=O)C(Cc1ccccc1)NC(=O)CCc1c(C)nc2nc(C)nn2c1C (centres undefined) | inactive: -11.4% | 
Cc1ccccc1OCc1nc2c3cnn(-c4ccccc4F)c3ncn2n1 | inactive: 2.31% | 
COCCNC(=O)CSc1nc2cc3c(cc2c(=O)n1CCCC(=O)NCc1ccc2c(c1)OCO2)OCO3 | inactive: 0.815% | 
O=C(NC1CCCC1)c1ccc2c(=O)n(Cc3ccccc3)c(SCc3cccc([N+](=O)[O-])c3)nc2c1 | inactive: 0.275% | 
CCc1ccc(OCC(=O)Nc2cc(-c3ccc(C)cc3)no2)cc1 | inactive: 1.47% | 
COc1ccc(CNC(=O)CSc2ncc3c(n2)-c2cc(Cl)ccc2N(Cc2ccccc2)S3(=O)=O)cc1 | inactive: -5.87% | 
Cc1ccc(Cl)cc1N1CCN(C(=O)Cn2c(-c3cccs3)cc3cc(F)ccc32)CC1 | inactive: 0.455% | 
CCOC(=O)Cn1c(=O)cc(C(F)(F)C(F)(F)F)c2c(C)nn(CC)c21 | inactive: -11% | 
COC(=O)c1sccc1S(=O)(=O)N1CCN(c2ccc(C)cc2C)CC1 | inactive: -9.8% | 
CCOc1ccc(CNC(=O)C2CCN(C(=O)N3CC(CC)Oc4ccccc43)CC2)cc1 (centres undefined) | inactive: -3.17% | 
Cc1c(Cl)cccc1NC(=O)N1CCOc2ccccc21 | inactive: -1.73% | 
Cc1ccc(OCC(=O)Nc2ccc3nc(SCC(=O)Nc4ccc(C)cc4C)sc3c2)cc1 | inactive: 0.991% | 
CC(C)(C)c1ccc(C(=O)NC2(C(F)(F)F)NC(=O)N(CCc3ccccc3)C2=O)cc1 (centres undefined) | inactive: -5.24% | 
COc1cccc(NC(=O)CSc2ncc3c(n2)-c2ccc(Cl)cc2N(C)S3(=O)=O)c1 | inactive: 0.43% | 
CCOc1ccccc1NC(=O)C(=O)NCCc1sc2nc(-c3ccc(OC)cc3)nn2c1C | inactive: -0.767% | 

SMILES | activity change, negative = inhibition | Potency
Cc1ccc(NC(=O)NCCOCCn2c(=O)oc3ccccc32)cc1C | inactive: -1.65% | 
CCOc1ccccc1NS(=O)(=O)c1ccc2[nH]c3c(c2c1)CCCCC3 | inactive: -10.1% | 
COc1ccc(S(=O)(=O)N(CC(=O)Nc2cc(C)ccc2OC)Cc2ccccc2)cc1 | inactive: 3.12% | 
COC(=O)c1ccc(NC(=O)CN2CCN(S(=O)(=O)c3ccc(Br)cc3)CC2)cc1 | inactive: 2.99% | 
Cc1ccc(Cn2c(=O)n(-c3ccc(C)cc3)c(=O)c3c2c2cc(C)ccc2n3C)cc1 | inactive: -1.48% | 
Cc1c(-c2ccc(Cl)cc2)c(=O)oc2c(CN3CCN(CCO)CC3)c(O)ccc12 | inactive: 4.01% | 
CCOc1ccc(CCNC(=O)c2cc3c(=O)n(C)c4ccccc4c3n2C)cc1OCC | inactive: 0.488% | 
CCCN(CCC)CCCNC(=O)C1CCN(c2nc3ccc(CC)cc3s2)CC1 |  | active: 16.5 µM
O=C(CSc1cn(CC(=O)N2CCCCC2)c2ccccc12)NCc1ccc(F)cc1 | inactive: -1.42% | 
N#C/C(=C\c1cccc(F)c1)c1nc(-c2cc3c(ccc4ccccc43)oc2=O)cs1 | inactive: -3.64% | 
CCOc1cc(C2c3c(oc4cc(C)cc(C)c4c3=O)C(=O)N2CCO)ccc1O (centres undefined) | inactive: -4.17% | 
Cc1ccc(NC(=O)Nc2ccc3nc(N4CCN(C)CC4)cc(C)c3c2)cc1F | inactive: -16.7% | 
CSc1cccc(NC(=O)C2CCCN(C(=O)c3cnn(-c4ccc(F)cc4)c3-n3cccc3)C2)c1 (centres undefined) | inactive: -1.13% | 
O=C(NCc1ccc2c(c1)OCO2)c1ccc2c(c1)N(Cc1cccc(Cl)c1)C(=O)c1ccccc1S2=O (centres undefined) | inactive: 2.08% | 
Cc1c(Cl)cccc1NC(=O)C1CCCN(c2nnc(-n3c(C)ccc3C)s2)C1 (centres undefined) | inactive: 0.582% | 
O=C(NCC(c1ccc2c(c1)OCO2)N1CCN(c2ccccc2)CC1)C(=O)Nc1cccc(F)c1 (centres undefined) | inactive: -7.14% | 
Cc1ccc(CSC2=Nc3ccccc3C3=NC(CCC(=O)NCc4cccs4)C(=O)N23)cc1 (centres undefined) | inactive: -3.37% | 
CCN(CCCNC(=O)c1ccc(Sc2ccc(F)cc2)c(NC(C)=O)c1)c1ccccc1 | inactive: 11.4% | 
COc1ccc(CNC(=O)Cn2c(=O)nc(-c3ccccc3F)c3cc(Cl)ccc32)cc1 | inactive: 0% | 
CCN(CC)C(=O)CSc1nc2cc3c(cc2c(=O)n1CCCCCC(=O)NCc1ccc(OC)cc1)OCO3 | inactive: 1.78% | 
Cc1ccc(F)cc1NC(=O)Cn1c(=O)nc(-c2ccccc2F)c2cc(Cl)ccc21 | inactive: 0% | 
COc1ccc(C2=C(C)C(=O)N(Cc3ccc(C(=O)Nc4cccc(F)c4)cc3)S2(=O)=O)cc1 | inactive: -1.3% | 
CC1CCCN(c2nc3c(S(=O)(=O)c4ccc(C(C)C)cc4)nnn3c3ccsc23)C1 (centres undefined) | inactive: -2.72% | 
COc1ccc(-c2csc(-c3nc(-c4ccc(Br)s4)cs3)n2)cc1F | inactive: -4.56% | 

SMILES | activity change, negative = inhibition | Potency
COc1ccccc1C(=O)NCc1nnnn1-c1ccc(C)c(C)c1 | inactive: -16.6% | 
CCC1CCCCN1CCCNC(=O)c1c(O)nc2ccccn2c1=O (centres undefined) | inactive: 0.247% | 
CCCC1=Nc2cc(C(=O)NCCc3ccc(OCC)cc3)ccc2Sc2ccccc21 | inactive: -23.3% | 
COc1cc2c(-c3ccccc3O)nc3c(c(C)nn3-c3ccccc3)c2cc1OC | inactive: -1.72% | 
COc1cccc(CN2C(=O)c3ccccc3Sc3ccc(C(=O)NCCc4ccc(C)cc4)cc32)c1 | inactive: -0.336% | 
Cc1cccc(NC(=O)Cn2cc(C(=O)C3CCCCC3)c3ccccc32)c1C | inactive: -12.4% | 
COc1ccccc1C(=O)N1CCCCC1CCN1CCOCC1 (centres undefined) | inactive: -3.95% | 
O=C(Nc1ccc(-c2nc3cc(NC(=O)c4ccccc4F)ccc3o2)cc1)c1ccccc1F | inactive: -3.51% | 
N#Cc1ccccc1NC(=O)CSc1ncn[nH]1 | inactive: 6.69% | 
Cc1ccc(CNC(=O)C(=O)NCC(c2cccnc2)N2CCN(c3ccc(F)cc3)CC2)cc1 (centres undefined) | inactive: 8.39% | 
O=C(NCc1ccccc1)c1cc2sccc2n1Cc1ccc(F)cc1 | inactive: -1.18% | 
CCCc1nn2c(=O)cc(COC(=O)c3cccs3)nc2s1 | inactive: -5.19% | 
CCOc1ccc(C(=O)c2cn(CC(=O)Nc3ccc4c(c3)OCCO4)c3ccc(OC)cc3c2=O)cc1 | inactive: -14.8% | 
COc1ccccc1NC(=O)c1sc2nc(C)c(C(=O)Nc3ccc(C)cc3C)c(-c3ccc(Br)cc3)c2c1N | inactive: -5.96% | 
Cc1ccccc1CNC(=O)Cn1ccc2cc(S(=O)(=O)N3CCCCC3)ccc21 | inactive: -5.52% | 
Cn1c(=O)c2c(nc(Oc3ccc(F)cc3)n2Cc2ccc(F)cc2)n(C)c1=O | inactive: -1.68% | 
Cc1ccc(C)c(NC(=O)c2nc(S(C)(=O)=O)ncc2N(Cc2ccc(C(C)(C)C)cc2)Cc2ccco2)c1 | inactive: -0.0619% | 
CN1C(=O)Cc2cc(S(=O)(=O)N3CCN(c4cccc(C(F)(F)F)c4)CC3)ccc21 | inactive: -0.996% | 
Cc1cccc(C(=O)Nc2ccc(C(=O)OCc3cc(=O)n4c5c(sc4n3)CCCC5)cc2)c1 | inactive: 0% | 
CCOc1ccc(C(=O)CSc2nc3cc(C(=O)NC4CCCC4)ccc3c(=O)n2CC2CCCO2)cc1 (centres undefined) | inactive: 1.19% | 
CC(=O)c1ccc(NC(=O)c2ccc3c(c2)nnn3C2CCCC2)cc1 | inactive: 7.93% | 
CCOc1ccc(CCn2c3c(c(=O)[nH]c2=O)C(NC(=O)c2ccccc2)(C(F)(F)F)C(=O)N3)cc1OCC (centres undefined) | inactive: 3.05% | 
